Experimental data published in PubChem BioAssay AID1745845 (National Center for Advancing Translational Sciences (NCATS), 2022).
“And” between values parts separate entries of the source, which are not always exact repeats. Equal entries are not always repeated. Out of some 360,000 compounds screened, about 2,600 (0.72%) were called active. Inconclusive means that the source gave no clear call. Such entries were picked first, then a sample of the others. Calls follow the shape of the dose curve; as a rule, active = well fitted inhibition curve with a large enough effect; inconclusive = small, poorly fitted or top-dose-only effect; inactive = no such curve, though single readings can be large or run the other way. Potencies of inconclusive entries are doubtful fits and often do not repeat.

Test: Primary qHTS for Inhibitors of ATXN expression; also: nearly all actives have a fitted effect of over 55% in size
Details: HEK-293 ATXN2-luciferase reporter, luminescence, 24 h; activity change, negative = inhibition: at 57 µM (top of the series)
Outline: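 qHTS (up to 57 uM final) was run with 24 h compound exposure of reporter cells at 37 °C. Each well was multiplexed: SteadyGlo luminescence measured ATXN2-luciferase expression after a fluorogenic Gly-Phe-AFC viability readout (25 uM final).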
% is scaled to controls: 0 for no effect and ±100 for the full control effect; potency is read from the fitted curve at half-maximal effect; tags tell the direction and shape of the fitted curve.

Row | SMILES | Potency | activity change, negative = inhibition
1 | O=C(OCc1c(F)cccc1Cl)c1cnccn1 | inconclusive: 31.6 µM [inhibitor, partial curve, poor fit] | 
2 | CC(=O)c1ccc(N2CCN(C(=O)C3CCCN(c4ncnc5c4nc4n5CCCCC4)C3)CC2)cc1 (centres undefined) | inconclusive: 35.5 µM [inhibitor, partial curve, poor fit] | 
3 | O=C(NCCc1ccc(F)cc1)C(=O)NCC(c1cccs1)S(=O)(=O)c1ccc(F)cc1 (centres undefined) | inconclusive: 35.5 µM [inhibitor, single point] | 
4 | CC1CC1C(=O)N1CCN(S(=O)(=O)c2cc(C(F)(F)F)cc(C(F)(F)F)c2)CC1 (centres undefined) | inconclusive: 39.8 µM [inhibitor, single point] | 
5 | CCOC(=O)c1sc(NCc2ccco2)c(-c2nc3ccccc3s2)c1N |  | inactive: -3.3%
6 | O=C(Cc1ccc(F)cc1)Nc1nnc(-c2ccc(F)cc2)o1 |  | inactive: -5.94%
7 | C=CCNc1ncnc2c1ncn2[C@H]1CN(Cc2ccc(-c3ccccc3)cc2)C[C@@H](CO)O1 | inconclusive: 39.8 µM [inhibitor, single point] | 
8 | CCC1CCCCN1CCCNC(=O)c1[nH]c2ccccc2c1Sc1ccc(Cl)cc1 (centres undefined) | inconclusive: 39.8 µM [inhibitor, single point] | 
9 | NC(=O)C1CCN(S(=O)(=O)c2cccc(S(=O)(=O)N3CCCCC3)c2)CC1 |  | inactive: -8.21%
10 | Clc1ccc(OCCSCc2nc3ccccc3[nH]2)cc1 | inconclusive: 8.91 µM [inhibitor, partial curve, poor fit] | 
11 | CCc1ccc(NC(=O)C2CCCN(S(=O)(=O)c3ccc4c(c3)CCCN4C(C)=O)C2)cc1 (centres undefined) | inactive and inconclusive: 15.8 µM [inhibitor, partial curve, poor fit] | 
12 | Oc1c(Cl)cc(Cl)cc1/C=C/c1ccc2cccc(O)c2n1 | inconclusive: 35.5 µM [inhibitor, single point] | 
13 | COc1ccc(NC(=O)NNC(=O)c2ccc(-c3ccccc3)cc2)cc1 | inconclusive: 39.8 µM [inhibitor, single point] | 
14 | C=CCNC(=S)NNC(=O)c1ccc(Br)cc1 |  | inactive: -3.35%
15 | Cc1cc(S(=O)(=O)N(Cc2ccc(C(C)(C)C)cc2)Cc2cccs2)ccc1-n1cnnn1 |  | inactive: -3.45%
16 | COc1ccc(NC2CS(=O)(=O)CC2NCc2ccco2)cc1 (centres undefined) |  | inactive: 2.53%
17 | Cc1ccccc1NC(=O)Nc1nc(C(N)Cc2ccccc2)cs1 (centres undefined) | inconclusive: 39.8 µM [inhibitor, single point] | 
18 | C=CCN(CC=C)S(=O)(=O)c1ccc(NC(=S)NC(=O)c2ccco2)cc1 |  | inactive: -9.91%
19 | Cc1ccc(Cn2nc(C)c(NC(=O)c3cc(-c4ccc(F)cc4)on3)c2C)cc1 | inconclusive: 28.2 µM [inhibitor, single point] | 
20 | Cc1nn(C(=O)c2ccccc2)c(C)c1Sc1ccc(Cl)cc1 | active: 25.1 µM | 
21 | Cc1cc(OCC(=O)NC(C)C)ccc1Cl |  | inactive: 14.4%
22 | CCN(CC)C(=O)C1CCN(Cc2ccc(Br)cc2)CC1 |  | inactive: -5.95%

Row | SMILES | Potency | activity change, negative = inhibition
23 | CC1CCCCC1N1CN=C(Nc2nc3ccccc3s2)NC1 (centres undefined) |  | inactive: 3.7%
24 | CCn1c(=O)n(CC)c2cc(N3CCCC3)c(NC(=O)c3cccc(C)c3)cc21 | inconclusive: 15.8 µM [inhibitor, partial curve, poor fit] | 
25 | O=C(Nc1nc(-c2ccncc2)cs1)c1ccco1 |  | inactive: 42.4%
26 | COc1ccc(-c2csc(NC(=O)CSC(C)C(=O)Nc3cc(C)on3)n2)cc1OC (centres undefined) | inconclusive: 39.8 µM [inhibitor, single point] | 
27 | CCCCCC(=O)N1CC2(CC(c3cccc(NC(=O)COc4ccc(Cl)cc4)c3)=NO2)C[C@@H]1C(N)=O (some centres undefined) | inconclusive: 31.6 µM [inhibitor, partial curve] | 
28 | COc1ccc(C2CC(c3ccccc3C(F)(F)F)=NN2c2ccc(S(N)(=O)=O)cc2)cc1 (centres undefined) | inconclusive: 39.8 µM [inhibitor, single point] | 
29 | CCCOc1ccc(NC(=O)CCC(=O)NC(C)c2ccccc2)cc1 (centres undefined) |  | inconclusive: -44.6% [inhibitor]
30 | CC(C)(C)c1cc(NCc2ccccn2)n2ncc(-c3ccccc3)c2n1 |  | inactive: -33.6%
31 | COc1ccc(-c2cc(NC=O)c3ncc(-c4cc(OC)c(OC)c(OC)c4)n3c2)c(OC)c1 | inconclusive: 39.8 µM [inhibitor, single point] | 
32 | Cc1noc(C)c1S(=O)(=O)N1CCN(c2ccc(Cl)cc2)CC1 |  | inactive: -8.55%
33 | O=C(N[C@@H](Cc1ccccc1)C(=O)OCc1ccccc1)c1nc[nH]c1C(=O)N1CCN(c2ccccc2)CC1 | inconclusive: 35.5 µM [inhibitor, single point] | 
34 | CC(=O)Oc1ccccc1C(=O)Nc1ncc([N+](=O)[O-])s1 | inconclusive: 28 µM [inhibitor, partial curve, poor fit] | 
35 | CCC(=O)N1c2ccc(S(=O)(=O)NCCc3ccc(C)cc3)cc2CC1C (centres undefined) |  | inactive: 0.739%
36 | CCc1ccccc1Nc1nn2c(=O)c3ccc(C(=O)NCc4ccc(C)cc4)cc3nc2s1 | inconclusive: 0.891 µM [inhibitor, full curve] | 
37 | O=C(Nc1cccc([N+](=O)[O-])c1)NN1CCCCCC1 | inconclusive: 31.6 µM [inhibitor, partial curve, poor fit] | 
38 | COc1ccc(C(O)(CC(C)C)C(CN2CCOCC2)c2ccccc2)cc1 (centres undefined) |  | inactive: -5.02%
39 | O=C(NNC1=C(C(=O)C(F)(F)F)CCC1)c1ccc(Br)cc1 | inconclusive: 39.8 µM [inhibitor, single point] | 
40 | O=C(Nc1nnc(C2CC2)s1)C1Cc2ccccc2CN1S(=O)(=O)c1cccs1 (centres undefined) |  | inactive: 29.9%
41 | O=C(CNc1cccc(C(F)(F)F)c1)Nc1cccc(S(=O)(=O)N2CCCC2)c1 | inconclusive: 14.1 µM [inhibitor, partial curve, poor fit] | 
42 | O=C(CN1CCCc2ccccc21)N/N=C/c1ccc(O)cc1O | inconclusive: 39.8 µM [inhibitor, single point] | 
43 | COC(=O)c1cc([N+](=O)[O-])ccc1N1CCN(Cc2ccccc2)CC1 | inconclusive: 1 µM [inhibitor, full curve] | 
44 | CC(C)(C)NC(=O)C(c1ccc(F)cc1)N(C(=O)CCC(=O)Nc1ccccn1)C1CCCC1 (centres undefined) |  | inactive: 2.11%
